# The inconclusive results got no clear call from the source; some entries with a clear call stand among them for comparison. For some of these results: Potencies of inconclusive entries are doubtful fits and often do not repeat. Activity calls are given as the source filed them. Unless noted, calls come from the whole dose curve.
# Assays:
# [1] = qHTS assay to identify small molecule antagonists of the sonic hedgehog signaling (Shh) pathway (AID 1259369); note: nearly all actives have a fitted effect of over 45% in size
# Summary of the method: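 3T3Gli1-Luc, conditioned-medium-stimulated, 24hr cpd, 37C/5% CO2; Gli1-driven firefly Luc luminescence after 30min RT with luciferase reagent. Cells plated 4hr before cpd.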
# [2] = target: Estrogen receptor beta (Homo sapiens) (UniProt Q92731); assay: qHTS assay to identify small molecule agonists of the estrogen receptor beta (ER-beta) signaling pathway (AID 1259377; active = well fitted activation curve with a large enough effect in the signal ratio in the repeat runs, not every such curve was filed as active; inconclusive = weak or mixed curves, or effect the other way; the % refers to the signal ratio; for activation: % is set by controls: 0 for no effect and ±100 for the full control effect); conditions: ER-beta-UAS-bla HEK293T, beta-lactamase FRET ratio, 16 h; activation: at 92.4 µM (top of the series) unless noted
# Sequence of UniProt Q92731 (Q92731 whole entry, looked up): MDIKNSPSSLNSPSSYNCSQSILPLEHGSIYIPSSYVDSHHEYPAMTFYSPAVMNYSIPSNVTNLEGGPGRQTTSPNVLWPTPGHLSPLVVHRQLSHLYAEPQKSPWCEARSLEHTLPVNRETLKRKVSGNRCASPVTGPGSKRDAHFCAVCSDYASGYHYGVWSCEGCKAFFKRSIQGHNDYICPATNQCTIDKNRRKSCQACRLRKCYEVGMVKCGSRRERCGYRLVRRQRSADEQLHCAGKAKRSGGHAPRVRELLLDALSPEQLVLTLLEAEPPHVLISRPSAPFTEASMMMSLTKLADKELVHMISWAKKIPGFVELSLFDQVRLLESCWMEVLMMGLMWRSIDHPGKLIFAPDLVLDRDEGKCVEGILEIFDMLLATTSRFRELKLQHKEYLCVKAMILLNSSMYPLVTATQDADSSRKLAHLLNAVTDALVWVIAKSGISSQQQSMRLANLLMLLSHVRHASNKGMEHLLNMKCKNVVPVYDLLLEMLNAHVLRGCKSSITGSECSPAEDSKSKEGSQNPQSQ
# Summary of the method: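 Ratiometric beta-lactamase FRET read-out came after 2 h substrate loading at room temperature. It followed 16 h compound treatment at 37C of GripTite HEK293T cells carrying a UAS-bla reporter, plated in 2% charcoal-stripped FBS medium.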
# [3] = target: Estrogen receptor beta (Homo sapiens) (UniProt Q92731); assay: qHTS assay to identify small molecule antagonists of the estrogen receptor beta (ER-beta) signaling pathway (AID 1259378; active = well fitted inhibition curve with a large enough effect in the signal ratio in the repeat runs, not every such curve was filed as active; inconclusive = weak or mixed curves, or effect the other way; inactive = no such curve, though single readings can be large or run the other way; the % refers to the signal ratio; for activity, negative = inhibition: % is set by controls: 0 for no effect and ±100 for the full control effect); conditions: ER-beta-UAS-bla HEK293T, beta-lactamase FRET ratio, 16 h; activity, negative = inhibition: at 92.4 µM (top of the series) unless noted
# Summary of the method: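 ER-beta-UAS-bla HEK293T cells in 2% charcoal-stripped FBS medium treated with compound plus 1nM final 17-beta-estradiol for 16 hr at 37C. Beta-lactamase reporter read by FRET substrate fluorescence after 2 hours at room temperature.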
# [4] = qHTS assay to identify small molecule antagonists of the estrogen receptor beta (ER-beta) signaling pathway - cell viability counter screen (AID 1259382; active = well fitted curve in the direction sought with a large enough effect in the repeat runs; inconclusive = weak or mixed curves; inactive = no such curve, though single readings can be large; an effect the other way counts as inactive or inconclusive; note: nearly all actives have a fitted effect of over 55% in size)
# Summary of the method: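 Cells: ER-beta-UAS-bla HEK293T, 2,000/well, 2% CS-FBS, 6 hr settle. Cpd + E2 (1nM final), 16 hr, 37C/5% CO2. Bla FRET substrate 2 hr RT, then CellTiter-Glo 30 min RT, luminescence.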
# [5] = target: Progesterone receptor (Homo sapiens) (UniProt P06401); assay: qHTS assay to identify small molecule agonists of the progesterone receptor (PR) signaling pathway (AID 1346784); conditions: PR-UAS-bla HEK293T, beta-lactamase FRET ratio, 16 h; activation: at 92.4 µM (top of the series) unless noted; note: nearly all actives have a fitted effect of over 30% in size
# Sequence of UniProt P06401 (P06401 whole entry, looked up): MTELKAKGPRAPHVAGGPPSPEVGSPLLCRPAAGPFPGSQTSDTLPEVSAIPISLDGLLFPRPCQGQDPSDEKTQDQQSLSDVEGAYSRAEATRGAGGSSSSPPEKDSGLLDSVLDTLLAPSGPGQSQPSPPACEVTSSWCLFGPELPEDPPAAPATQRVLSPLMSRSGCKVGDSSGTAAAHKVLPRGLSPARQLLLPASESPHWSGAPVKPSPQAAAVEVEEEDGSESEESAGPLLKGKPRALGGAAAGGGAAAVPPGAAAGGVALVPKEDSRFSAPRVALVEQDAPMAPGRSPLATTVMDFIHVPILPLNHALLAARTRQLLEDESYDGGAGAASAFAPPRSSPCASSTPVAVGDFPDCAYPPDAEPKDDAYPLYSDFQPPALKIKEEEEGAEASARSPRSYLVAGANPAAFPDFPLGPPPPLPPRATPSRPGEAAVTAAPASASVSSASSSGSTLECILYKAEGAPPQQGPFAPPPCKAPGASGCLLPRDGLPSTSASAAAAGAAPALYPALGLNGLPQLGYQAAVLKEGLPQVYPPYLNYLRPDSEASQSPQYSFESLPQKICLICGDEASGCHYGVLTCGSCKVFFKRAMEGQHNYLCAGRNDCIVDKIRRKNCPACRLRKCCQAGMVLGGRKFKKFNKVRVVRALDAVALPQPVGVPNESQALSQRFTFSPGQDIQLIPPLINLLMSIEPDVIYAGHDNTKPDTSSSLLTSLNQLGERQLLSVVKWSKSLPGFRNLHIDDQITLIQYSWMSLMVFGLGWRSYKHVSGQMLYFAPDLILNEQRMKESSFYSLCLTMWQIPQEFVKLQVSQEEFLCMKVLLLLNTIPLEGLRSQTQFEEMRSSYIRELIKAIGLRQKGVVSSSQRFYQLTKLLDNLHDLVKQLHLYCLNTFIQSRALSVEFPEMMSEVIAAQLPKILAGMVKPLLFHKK
# Summary of the method: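 Agonist qHTS: compounds pinned onto 3,000 PR-UAS-bla HEK 293T cells per well in charcoal-stripped serum medium, 16hr at 37C, then beta-lactamase activity measured by LiveBLAzer FRET fluorescence after 2 hours at room temperature.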
# [6] = target: Progesterone receptor (Homo sapiens) (UniProt P06401); assay: qHTS assay to identify small molecule antagonists of the progesterone receptor (PR) signaling pathway (AID 1346795; active = well fitted inhibition curve with a large enough effect in the signal ratio in the repeat runs, not every such curve was filed as active; inconclusive = weak or mixed curves; the % refers to the signal ratio; for activity change, negative = inhibition: % is set by controls: 0 for no effect and ±100 for the full control effect); conditions: PR-UAS-bla HEK293T, beta-lactamase FRET ratio, 16 h; activity change, negative = inhibition: at 92.4 µM (top of the series) unless noted
# Summary of the method: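 Antagonist mode with agonist R5020 at 1 nM final and 16 hr incubation at 37C. Reporter was beta-lactamase driven by UAS in HEK293T (PR-UAS-bla), 2% charcoal-stripped serum; signal from LiveBLAzer FRET substrate, 2 hr at room temperature.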
# [7] = qHTS assay to identify small molecule antagonists of the progesterone receptor (PR) signaling pathway - cell viability counter screen (AID 1346798; active = well fitted curve in the direction sought with a large enough effect in the repeat runs; inconclusive = weak or mixed curves; inactive = no such curve, though single readings can be large; an effect the other way counts as inactive or inconclusive; note: nearly all actives have a fitted effect of over 50% in size)
# Summary of the method: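 Cytotoxicity read as CellTiter-Glo luminescence (30 min, room temperature) in the same wells as the beta-lactamase readout. HEK293T PR-UAS-bla cells in charcoal-stripped 2% FBS received compound and R5020, then 16 h at 37C, 5% CO2.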
# [8] = qHTS assay to identify small molecule agonists of the progesterone receptor (PR) signaling pathway - cell viability counter screen (AID 1346799); note: nearly all actives have a fitted effect of over 45% in size
# Summary of the method: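 Cytotoxicity measured by CellTiter-Glo luminescence (30 min, RT) in the same wells as the PR beta-lactamase agonist read. Those HEK293T cells had 16 h compound treatment at 37 C in 2% charcoal-stripped FBS medium.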
# [9] = qHTS assay to identify small molecule agonists of the estrogen receptor beta (ER-beta) signaling pathway - cell viability counter screen (AID 1259380; active = well fitted curve in the direction sought with a large enough effect in the repeat runs; inconclusive = weak or mixed curves; inactive = no such curve, though single readings can be large; an effect the other way counts as inactive or inconclusive; note: nearly all actives have a fitted effect of over 30% in size)
# Summary of the method: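 HEK293T ER-beta-UAS-bla; 2% CS-FBS; 6 hr pre-plate, 16 hr cpd at 37C/5% CO2; LiveBLAzer read first, then CellTiter-Glo 30 min RT, luminescence.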
# [10] = qHTS assay to identify small molecule agonists of the androgen receptor (AR) signaling pathway in the presence of an antagonist - cell viability counter screen (AID 1259379; active = well fitted curve in the direction sought with a large enough effect in the repeat runs; inconclusive = weak or mixed curves; inactive = no such curve, though single readings can be large; an effect the other way counts as inactive or inconclusive; note: nearly all actives have a fitted effect of over 25% in size)
# Summary of the method: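 Cells: MDA-kb2 (MMTV-luc, AR and GR elements), 3,000/well, 5 hr settle. Added: nilutamide 3.0uM final, then compounds (15 conc.). Incubation: 16 hr, 37C, no CO2. Read-out: CellTiter-Fluor, 1 hr, fluorescence.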
# [11] = qHTS assay to identify small molecule agonists of the TGF-beta/Smad signaling pathway - cell viability counter screen (AID 1346829; active = well fitted curve in the direction sought with a large enough effect in the repeat runs; inconclusive = weak or mixed curves; inactive = no such curve, though single readings can be large; an effect the other way counts as inactive or inconclusive; note: nearly all actives have a fitted effect of over 45% in size)
# Summary of the method: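 HEK 293T SBE-bla line, 5 hr compound exposure at 37 C, multiplexed CellTiter-Glo viability read by luminescence.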
# [12] = qHTS assay to identify small molecule agonists or antagonists of the thyroid stimulating hormone receptor (TSHR) signaling pathway - wild type cell line counter screen (AID 1259384); conditions: HEK293 wild type, cAMP HTRF counter-screen; cAMP activity change: at 92.4 µM (top of the series), hits give high values unless noted
# Summary of the method: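 Wild-type Hek293 cells, 800/well, 18 h at 37C, then compound with Ro20-1724 for 30 min RT. cAMP by HTRF (cAMP-d2/anti-cAMP cryptate), 1 h RT, fluorescence read. 15 concentrations, triplicates.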
# [13] = target: Thyrotropin receptor (Homo sapiens) (UniProt P16473); assay: qHTS assay to identify small molecule antagonists of the thyroid stimulating hormone receptor (TSHR) signaling pathway (AID 1259385); conditions: TSHR-HEK293 cAMP HTRF, TSH-stimulated antagonist mode; activity change, negative = inhibition: at 92.4 µM (top of the series) unless noted; note: nearly all actives have a fitted effect of over 20% in size
# Sequence of UniProt P16473 (P16473 whole entry, looked up): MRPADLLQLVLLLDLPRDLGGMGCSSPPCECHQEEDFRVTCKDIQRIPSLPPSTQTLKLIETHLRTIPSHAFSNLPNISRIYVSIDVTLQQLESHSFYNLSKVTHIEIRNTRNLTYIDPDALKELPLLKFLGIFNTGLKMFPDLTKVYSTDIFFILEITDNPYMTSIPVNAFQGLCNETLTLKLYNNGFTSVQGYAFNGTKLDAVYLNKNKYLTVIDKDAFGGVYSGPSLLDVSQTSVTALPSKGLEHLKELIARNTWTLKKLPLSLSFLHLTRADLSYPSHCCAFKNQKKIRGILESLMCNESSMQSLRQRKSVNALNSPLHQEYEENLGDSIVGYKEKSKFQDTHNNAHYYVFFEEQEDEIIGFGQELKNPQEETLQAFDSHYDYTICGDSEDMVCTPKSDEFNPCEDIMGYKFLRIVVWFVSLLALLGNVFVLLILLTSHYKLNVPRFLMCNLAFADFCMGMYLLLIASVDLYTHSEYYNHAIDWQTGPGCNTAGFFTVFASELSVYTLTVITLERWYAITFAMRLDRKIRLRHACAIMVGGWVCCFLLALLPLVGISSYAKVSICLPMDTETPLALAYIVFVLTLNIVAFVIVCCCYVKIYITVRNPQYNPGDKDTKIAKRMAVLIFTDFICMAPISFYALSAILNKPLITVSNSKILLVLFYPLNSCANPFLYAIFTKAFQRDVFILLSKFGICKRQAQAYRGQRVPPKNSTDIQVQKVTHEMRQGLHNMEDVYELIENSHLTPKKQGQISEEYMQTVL
# Summary of the method: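 TSHR-HEK293 cells (800/well) plated 18 h, then compounds with Ro20-1724 and TSH at 1.5 ng/mL final, 30 min at room temperature. cAMP quantified by HTRF (cAMP-d2/anti-cAMP-cryptate, 1 h); 15 concentrations in triplicate.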
# [14] = qHTS assay to identify small molecule agonists of the estrogen receptor alpha (ER-alpha) signaling pathway in the presence of an antagonist - cell viability counter screen (AID 1259386; active = well fitted curve in the direction sought with a large enough effect in the repeat runs; inconclusive = weak or mixed curves; inactive = no such curve, though single readings can be large; an effect the other way counts as inactive or inconclusive;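 note: cells exposed to compounds for 22 h at 37 °C before the viability read; nearly all actives have a fitted effect of over 30% in size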)
# Summary of the method: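 VM7Luc4E2, stripped-serum pre-culture 5 d; 24hr plating; +ICI-182,780 10.0nM final; cpds 15 conc, 22hr, 37C/5% CO2; CellTiter-Fluor added at 21hr, fluorescence 1hr later.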
# [15] = qHTS assay to identify small molecule agonists of the TGF-beta/Smad signaling pathway (AID 1346859; active = well fitted activation curve with a large enough effect in the signal ratio in the repeat runs, not every such curve was filed as active; inconclusive = weak or mixed curves; the % refers to the signal ratio); conditions: SBE-bla HEK293T, TGF-beta/Smad beta-lactamase reporter, 5 h; activation: at 76.8 µM (top of the series)
# Summary of the method: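 Fluorescence (ex 405 nm; em 460 and 530 nm) was read 2 h after LiveBLAzer FRET substrate at RT. The preceding compound treatment of overnight-plated SBE-bla HEK293T cells lasted 5 h at 37 C.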
# Potency is the fitted concentration of half-maximal effect; tags give direction and shape of the fitted curve or compound fluorescence and quenching.
smiles,measurement,setting,value
CCCCCCCCCCCCC(=O)O,Potency,[1],active: 2.74 µM
same,Potency,[2],"inconclusive: 68.8 µM [fluorescent, single point]"
same,Potency,[3],"inconclusive: 68.8 µM [rising, partial curve, poor fit]"
same,Potency,[4],"inconclusive: 61.3 µM [cytotoxic, partial curve]"
same,Potency,[5],"inconclusive: 61.3 µM [rising, partial curve]"
same,Potency,[6],inactive
same,Potency,[7],"inconclusive: 24.4 µM [cytotoxic, partial curve, poor fit]"
same,Potency,[8],active: 19.4 µM
COc1ccc(C(=O)Nc2ccccc2)cc1[N+](=O)[O-],Potency,[1],inconclusive: 21.8 µM [inhibitor]
same,Potency,[2],"inconclusive: 27.5 µM [rising, partial curve]"
same,"activity, negative = inhibition",[3],inconclusive: -24.6%
same,Potency,[9],active: 30.9 µM
same,Potency,[6],active: 54.9 µM
C=CC(=O)OCC(Br)CBr (stereo unspecified),Potency,[1],"inconclusive: 68.6 µM [inhibitor, single point]"
CO[Si](OC)(c1ccccc1)c1ccccc1,Potency,[1],active: 21.7 µM
same,activation,[2],inconclusive: 6.31%
same,Potency,[3],inactive
same,Potency,[9],inactive
same,Potency,[6],"inconclusive: 68.6 µM [falling, single point]"
same,Potency,[7],"inconclusive: 68.6 µM [cytotoxic, single point]"
same,Potency,[8],inactive
CC(C)(C)C(=O)OCOP(=O)(COCCn1cnc2c(N)ncnc21)OCOC(=O)C(C)(C)C,Potency,[1],active: 2.98 µM
same,Potency,[2],inactive
same,Potency,[3],inactive
same,Potency,[10],"inconclusive: 21.1 µM [cytotoxic, partial curve]"
same,"activity change, negative = inhibition",[6],inconclusive: -42.8% [at 42.5 µM]
same,Potency,[7],"inconclusive: 18.8 µM [cytotoxic, partial curve]"
same,Potency,[8],"inconclusive: 9.44 µM [cytotoxic, partial curve]"
same,Potency,[11],"inconclusive: 3.01 µM [cytotoxic, full curve, poor fit]"
CCN(CC)CCNc1ccc(CNC=O)c2sc3ccc(OC)cc3c(=O)c12,Potency,[1],"inconclusive: 0.686 µM [inhibitor, full curve]"
same,Potency,[2],inconclusive: 68.6 µM [activator]
same,"activity, negative = inhibition",[3],inconclusive: -0.526%
same,Potency,[10],"inconclusive: 30.6 µM [cytotoxic, partial curve]"
same,Potency,[12],"inconclusive: 48.6 µM [falling, partial curve, poor fit]"
same,Potency,[13],"inconclusive: 68.6 µM [falling, partial curve]"
same,Potency,[6],active: 43.3 µM
same,Potency,[7],active: 24.3 µM
same,Potency,[8],active: 27.3 µM
COC(=O)c1ccc2cc(C(=O)OC)ccc2c1,Potency,[1],active: 9.93 µM
CC(C)C(=O)Nc1cccc(C2CN3CCSC3=N2)c1 (stereo unspecified),Potency,[1],"inconclusive: 2.98 µM [inhibitor, single point]"
c1ccc2c(c1)-c1ccc3ccc4cccc5cc-2c1c3c45,Potency,[1],"inconclusive: 0.0094 µM [inhibitor, full curve]"
same,Potency,[2],inconclusive: 10.6 µM [fluorescent]
same,Potency,[3],"inconclusive: 10.6 µM [fluorescent, partial curve]"
same,Potency,[10],"inconclusive: 18.8 µM [rising, partial curve]"
same,Potency,[13],"inconclusive: 29.8 µM [falling, single point]"
same,Potency,[14],"inconclusive: 9.44 µM [rising, partial curve]"
same,Potency,[5],"inconclusive: 7.5 µM [fluorescent, full curve]"
same,Potency,[6],inconclusive: 9.44 µM
same,Potency,[7],inactive
same,Potency,[15],"inconclusive: 10.7 µM [fluorescent, partial curve]"
Cc1cccc(O)c1,Potency,[1],"inconclusive: 0.243 µM [inhibitor, single point]"
same,activation,[2],inconclusive: 7.07%
NCCN1CCOCC1,Potency,[1],"inconclusive: 68.6 µM [inhibitor, single point]"
C[N+](C)(C)CCO,Potency,[1],"inconclusive: 1.54 µM [inhibitor, single point]"
CN1CCC(=C2c3ccccc3Sc3ccccc32)CC1,Potency,[1],"inconclusive: 5.96 µM [inhibitor, full curve, poor fit]"
same,Potency,[2],"inconclusive: 0.0944 µM [falling, partial curve, poor fit]"
same,Potency,[3],inconclusive: 29.8 µM
same,Potency,[9],active: 23.7 µM
same,Potency,[6],active: 23.7 µM
same,Potency,[7],"inconclusive: 15 µM [cytotoxic, partial curve]"
C=Cc1c(C)c2cc3[nH]c(cc4nc(cc5nc(cc1[nH]2)C(C)=C5CCC(=O)O)C(CCC(=O)O)=C4C)c(C)c3C=C,Potency,[1],"inconclusive: 0.106 µM [inhibitor, single point]"
